Results are given in words; binding and its absence hold for the method and conditions named. In cells and extracts the contact can be indirect. Some entries that bind do so weakly or less than the wild type. For some of these results: Sequences can lack the tags named with a protein. Each block holds one binder with its values, some of them ahead of it.
Key:
[1] = target: endogenous DCAF15 (human (endogenous in SMMC-7721)) (UniProt Q66K64); test: co-IP; endogenous proteins of SMMC-7721 cells, 10 μM MG132 for 6 h; RIPA buffer; anti-ZEB1 or anti-DCAF15 antibody or IgG (mock IP), protein A/G beads; Western blot
Flag-DDB1 = Flag-DDB1 (UniProt Q16531); test: co-IP; Flag-tagged protein expressed in HEK293T cells, 10 μM MG132 for 6 h; anti-Flag M2 agarose beads; blot for endogenous ZEB1
Flag-CUL4A (human) = Flag-CUL4A (human) (UniProt Q13619); test: as above
[2] = target: T1, Flag-CUL4B (human), Q13620; test: as above; details: remark: other sources report otherwise
T1 chain: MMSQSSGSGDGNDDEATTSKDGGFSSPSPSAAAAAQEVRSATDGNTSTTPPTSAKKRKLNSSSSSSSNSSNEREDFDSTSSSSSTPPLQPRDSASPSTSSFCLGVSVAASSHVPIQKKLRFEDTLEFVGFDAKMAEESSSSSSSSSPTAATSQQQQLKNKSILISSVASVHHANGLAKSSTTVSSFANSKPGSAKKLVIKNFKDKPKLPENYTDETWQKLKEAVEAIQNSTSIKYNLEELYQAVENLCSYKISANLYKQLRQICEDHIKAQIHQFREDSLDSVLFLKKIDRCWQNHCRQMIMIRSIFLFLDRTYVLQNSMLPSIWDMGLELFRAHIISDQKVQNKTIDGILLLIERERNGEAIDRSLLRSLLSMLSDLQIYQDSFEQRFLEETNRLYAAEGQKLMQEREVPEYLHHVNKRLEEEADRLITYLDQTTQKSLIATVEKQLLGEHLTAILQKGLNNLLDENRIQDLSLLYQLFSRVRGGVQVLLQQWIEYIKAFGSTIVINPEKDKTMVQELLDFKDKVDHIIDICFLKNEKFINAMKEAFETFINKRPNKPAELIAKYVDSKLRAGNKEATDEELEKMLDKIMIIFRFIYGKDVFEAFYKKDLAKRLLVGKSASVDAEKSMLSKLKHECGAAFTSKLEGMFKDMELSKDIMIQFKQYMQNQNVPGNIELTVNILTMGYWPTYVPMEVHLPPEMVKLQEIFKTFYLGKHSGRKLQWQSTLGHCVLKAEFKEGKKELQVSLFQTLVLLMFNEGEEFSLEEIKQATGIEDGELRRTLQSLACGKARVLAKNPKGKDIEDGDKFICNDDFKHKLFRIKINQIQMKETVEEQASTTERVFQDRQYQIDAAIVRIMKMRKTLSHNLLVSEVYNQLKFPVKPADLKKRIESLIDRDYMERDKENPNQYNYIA

By UniProt entry, the sequences of proteins in these tests, tags left out.
UniProt Q66K64: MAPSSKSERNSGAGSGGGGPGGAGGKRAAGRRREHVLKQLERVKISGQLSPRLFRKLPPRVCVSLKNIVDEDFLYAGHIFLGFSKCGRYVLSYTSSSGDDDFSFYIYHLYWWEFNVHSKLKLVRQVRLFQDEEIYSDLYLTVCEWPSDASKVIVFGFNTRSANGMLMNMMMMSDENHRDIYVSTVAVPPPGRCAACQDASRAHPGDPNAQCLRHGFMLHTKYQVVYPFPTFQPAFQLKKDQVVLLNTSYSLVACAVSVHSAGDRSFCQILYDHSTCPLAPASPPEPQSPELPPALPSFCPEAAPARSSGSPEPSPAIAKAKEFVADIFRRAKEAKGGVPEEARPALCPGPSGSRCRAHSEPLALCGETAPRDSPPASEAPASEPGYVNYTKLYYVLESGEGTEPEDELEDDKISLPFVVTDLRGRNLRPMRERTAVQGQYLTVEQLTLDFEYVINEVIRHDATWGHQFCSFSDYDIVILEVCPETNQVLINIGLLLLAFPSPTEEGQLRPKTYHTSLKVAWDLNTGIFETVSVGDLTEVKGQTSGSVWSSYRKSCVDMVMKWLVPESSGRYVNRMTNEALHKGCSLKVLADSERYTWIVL
UniProt Q16531: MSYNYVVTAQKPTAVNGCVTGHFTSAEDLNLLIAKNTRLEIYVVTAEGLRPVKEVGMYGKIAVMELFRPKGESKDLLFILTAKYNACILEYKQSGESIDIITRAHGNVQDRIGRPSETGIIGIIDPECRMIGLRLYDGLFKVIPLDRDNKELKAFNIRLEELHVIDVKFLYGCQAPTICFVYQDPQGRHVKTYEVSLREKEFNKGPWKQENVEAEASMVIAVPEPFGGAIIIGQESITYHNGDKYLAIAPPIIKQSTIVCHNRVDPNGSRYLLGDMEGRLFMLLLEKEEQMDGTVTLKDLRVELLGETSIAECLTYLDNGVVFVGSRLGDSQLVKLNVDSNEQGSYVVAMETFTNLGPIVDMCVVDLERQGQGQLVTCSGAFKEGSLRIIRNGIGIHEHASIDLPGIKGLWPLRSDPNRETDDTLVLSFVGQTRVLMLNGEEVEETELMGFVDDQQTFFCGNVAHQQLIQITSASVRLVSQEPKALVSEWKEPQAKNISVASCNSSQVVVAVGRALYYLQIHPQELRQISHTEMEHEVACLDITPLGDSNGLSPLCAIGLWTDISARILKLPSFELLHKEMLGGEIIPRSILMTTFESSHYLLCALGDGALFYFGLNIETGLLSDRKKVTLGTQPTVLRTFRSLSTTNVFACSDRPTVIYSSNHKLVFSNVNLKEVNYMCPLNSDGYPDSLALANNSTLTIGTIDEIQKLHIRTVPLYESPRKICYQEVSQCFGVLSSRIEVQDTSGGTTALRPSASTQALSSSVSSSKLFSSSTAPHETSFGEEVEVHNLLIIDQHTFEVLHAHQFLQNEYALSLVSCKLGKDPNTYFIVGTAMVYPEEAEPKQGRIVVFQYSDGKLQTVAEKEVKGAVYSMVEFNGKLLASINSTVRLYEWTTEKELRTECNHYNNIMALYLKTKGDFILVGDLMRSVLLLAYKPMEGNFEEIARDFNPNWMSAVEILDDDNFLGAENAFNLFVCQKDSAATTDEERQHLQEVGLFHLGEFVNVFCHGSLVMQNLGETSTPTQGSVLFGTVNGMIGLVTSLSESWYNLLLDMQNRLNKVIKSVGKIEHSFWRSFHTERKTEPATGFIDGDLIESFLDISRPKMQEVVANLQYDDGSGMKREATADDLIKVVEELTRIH
UniProt Q13619: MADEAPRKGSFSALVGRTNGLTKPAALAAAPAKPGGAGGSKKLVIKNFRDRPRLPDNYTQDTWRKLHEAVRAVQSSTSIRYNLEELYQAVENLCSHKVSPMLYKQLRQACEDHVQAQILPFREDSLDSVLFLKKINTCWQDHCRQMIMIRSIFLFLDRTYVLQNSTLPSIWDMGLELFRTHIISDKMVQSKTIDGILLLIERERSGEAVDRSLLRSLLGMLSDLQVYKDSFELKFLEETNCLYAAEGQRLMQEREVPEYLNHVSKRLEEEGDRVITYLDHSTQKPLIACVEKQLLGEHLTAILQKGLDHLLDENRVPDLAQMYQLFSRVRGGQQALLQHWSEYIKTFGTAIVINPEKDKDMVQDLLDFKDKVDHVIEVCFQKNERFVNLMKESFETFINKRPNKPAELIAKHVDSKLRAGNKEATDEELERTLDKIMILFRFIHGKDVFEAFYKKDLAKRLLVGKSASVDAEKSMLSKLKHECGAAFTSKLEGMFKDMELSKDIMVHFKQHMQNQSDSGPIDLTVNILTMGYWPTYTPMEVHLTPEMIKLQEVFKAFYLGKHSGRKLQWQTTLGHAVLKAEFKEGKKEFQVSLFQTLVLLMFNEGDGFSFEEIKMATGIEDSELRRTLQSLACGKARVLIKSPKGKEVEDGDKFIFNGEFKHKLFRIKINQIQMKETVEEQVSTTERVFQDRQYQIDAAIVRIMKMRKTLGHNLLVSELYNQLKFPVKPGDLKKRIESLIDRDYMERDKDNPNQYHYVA

binding [1]: binds
B1: endogenous ZEB1 (SMMC-7721 cells) (protein, UniProt P37275 1-1124)
chain: MADGPRCKRRKQANPRRNNVTNYNTVVETNSDSDDEDKLHIVEEESVTDAADCEGVPEDDLPTDQTVLPGRSSEREGNAKNCWEDDRKEGQEILGPEAQADEAGCTVKDDECESDAENEQNHDPNVEEFLQQQDTAVIFPEAPEEDQRQGTPEASGHDENGTPDAFSQLLTCPYCDRGYKRFTSLKEHIKYRHEKNEDNFSCSLCSYTFAYRTQLERHMTSHKSGRDQRHVTQSGCNRKFKCTECGKAFKYKHHLKEHLRIHSGEKPYECPNCKKRFSHSGSYSSHISSKKCISLIPVNGRPRTGLKTSQCSSPSLSASPGSPTRPQIRQKIENKPLQEQLSVNQIKTEPVDYEFKPIVVASGINCSTPLQNGVFTGGGPLQATSSPQGMVQAVVLPTVGLVSPISINLSDIQNVLKVAVDGNVIRQVLENNQANLASKEQETINASPIQQGGHSVISAISLPLVDQDGTTKIIINYSLEQPSQLQVVPQNLKKENPVATNSCKSEKLPEDLTVKSEKDKSFEGGVNDSTCLLCDDCPGDINALPELKHYDLKQPTQPPPLPAAEAEKPESSVSSATGDGNLSPSQPPLKNLLSLLKAYYALNAQPSAEELSKIADSVNLPLDVVKKWFEKMQAGQISVQSSEPSSPEPGKVNIPAKNNDQPQSANANEPQDSTVNLQSPLKMTNSPVLPVGSTTNGSRSSTPSPSPLNLSSSRNTQGYLYTAEGAQEEPQVEPLDLSLPKQQGELLERSTITSVYQNSVYSVQEEPLNLSCAKKEPQKDSCVTDSEPVVNVIPPSANPINIAIPTVTAQLPTIVAIADQNSVPCLRALAANKQTILIPQVAYTYSTTVSPAVQEPPLKVIQPNGNQDERQDTSSEGVSNVEDQNDSDSTPPKKKMRKTENGMYACDLCDKIFQKSSSLLRHKYEHTGKRPHECGICKKAFKHKHHLIEHMRLHSGEKPYQCDKCGKRFSHSGSYSQHMNHRYSYCKREAEERDSTEQEEAGPEILSNEHVGARASPSQGDSDERESLTREEDEDSEKEEEEEDKEMEELQEEKECEKPQGDEEEEEEEEEVEEEEVEEAENEGEEAKTEGLMKDDRAESQASSLGQKVGESSEQVSEEKTNEA

binding (Flag-DDB1): no binding
binding (Flag-CUL4A (human)): no binding
B2: endogenous ZEB1 (HEK293T cells) (protein, UniProt P37275 1-1124)
chain: MADGPRCKRRKQANPRRNNVTNYNTVVETNSDSDDEDKLHIVEEESVTDAADCEGVPEDDLPTDQTVLPGRSSEREGNAKNCWEDDRKEGQEILGPEAQADEAGCTVKDDECESDAENEQNHDPNVEEFLQQQDTAVIFPEAPEEDQRQGTPEASGHDENGTPDAFSQLLTCPYCDRGYKRFTSLKEHIKYRHEKNEDNFSCSLCSYTFAYRTQLERHMTSHKSGRDQRHVTQSGCNRKFKCTECGKAFKYKHHLKEHLRIHSGEKPYECPNCKKRFSHSGSYSSHISSKKCISLIPVNGRPRTGLKTSQCSSPSLSASPGSPTRPQIRQKIENKPLQEQLSVNQIKTEPVDYEFKPIVVASGINCSTPLQNGVFTGGGPLQATSSPQGMVQAVVLPTVGLVSPISINLSDIQNVLKVAVDGNVIRQVLENNQANLASKEQETINASPIQQGGHSVISAISLPLVDQDGTTKIIINYSLEQPSQLQVVPQNLKKENPVATNSCKSEKLPEDLTVKSEKDKSFEGGVNDSTCLLCDDCPGDINALPELKHYDLKQPTQPPPLPAAEAEKPESSVSSATGDGNLSPSQPPLKNLLSLLKAYYALNAQPSAEELSKIADSVNLPLDVVKKWFEKMQAGQISVQSSEPSSPEPGKVNIPAKNNDQPQSANANEPQDSTVNLQSPLKMTNSPVLPVGSTTNGSRSSTPSPSPLNLSSSRNTQGYLYTAEGAQEEPQVEPLDLSLPKQQGELLERSTITSVYQNSVYSVQEEPLNLSCAKKEPQKDSCVTDSEPVVNVIPPSANPINIAIPTVTAQLPTIVAIADQNSVPCLRALAANKQTILIPQVAYTYSTTVSPAVQEPPLKVIQPNGNQDERQDTSSEGVSNVEDQNDSDSTPPKKKMRKTENGMYACDLCDKIFQKSSSLLRHKYEHTGKRPHECGICKKAFKHKHHLIEHMRLHSGEKPYQCDKCGKRFSHSGSYSQHMNHRYSYCKREAEERDSTEQEEAGPEILSNEHVGARASPSQGDSDERESLTREEDEDSEKEEEEEDKEMEELQEEKECEKPQGDEEEEEEEEEVEEEEVEEAENEGEEAKTEGLMKDDRAESQASSLGQKVGESSEQVSEEKTNEA

binding [2]: no binding
B3: endogenous ZEB1 (HEK293T cells), P37275 1-1124 (protein)
chain: MADGPRCKRRKQANPRRNNVTNYNTVVETNSDSDDEDKLHIVEEESVTDAADCEGVPEDDLPTDQTVLPGRSSEREGNAKNCWEDDRKEGQEILGPEAQADEAGCTVKDDECESDAENEQNHDPNVEEFLQQQDTAVIFPEAPEEDQRQGTPEASGHDENGTPDAFSQLLTCPYCDRGYKRFTSLKEHIKYRHEKNEDNFSCSLCSYTFAYRTQLERHMTSHKSGRDQRHVTQSGCNRKFKCTECGKAFKYKHHLKEHLRIHSGEKPYECPNCKKRFSHSGSYSSHISSKKCISLIPVNGRPRTGLKTSQCSSPSLSASPGSPTRPQIRQKIENKPLQEQLSVNQIKTEPVDYEFKPIVVASGINCSTPLQNGVFTGGGPLQATSSPQGMVQAVVLPTVGLVSPISINLSDIQNVLKVAVDGNVIRQVLENNQANLASKEQETINASPIQQGGHSVISAISLPLVDQDGTTKIIINYSLEQPSQLQVVPQNLKKENPVATNSCKSEKLPEDLTVKSEKDKSFEGGVNDSTCLLCDDCPGDINALPELKHYDLKQPTQPPPLPAAEAEKPESSVSSATGDGNLSPSQPPLKNLLSLLKAYYALNAQPSAEELSKIADSVNLPLDVVKKWFEKMQAGQISVQSSEPSSPEPGKVNIPAKNNDQPQSANANEPQDSTVNLQSPLKMTNSPVLPVGSTTNGSRSSTPSPSPLNLSSSRNTQGYLYTAEGAQEEPQVEPLDLSLPKQQGELLERSTITSVYQNSVYSVQEEPLNLSCAKKEPQKDSCVTDSEPVVNVIPPSANPINIAIPTVTAQLPTIVAIADQNSVPCLRALAANKQTILIPQVAYTYSTTVSPAVQEPPLKVIQPNGNQDERQDTSSEGVSNVEDQNDSDSTPPKKKMRKTENGMYACDLCDKIFQKSSSLLRHKYEHTGKRPHECGICKKAFKHKHHLIEHMRLHSGEKPYQCDKCGKRFSHSGSYSQHMNHRYSYCKREAEERDSTEQEEAGPEILSNEHVGARASPSQGDSDERESLTREEDEDSEKEEEEEDKEMEELQEEKECEKPQGDEEEEEEEEEVEEEEVEEAENEGEEAKTEGLMKDDRAESQASSLGQKVGESSEQVSEEKTNEA
